Measurements from PubChem BioAssay AID588342 (National Center for Advancing Translational Sciences (NCATS), 2011).
About 25,000 (6.9%) of roughly 360,000 compounds were called active. Inconclusive means that the source gave no clear call. Such entries were picked first, then a sample of the others. The call rests on the fitted dose curve; in most records, active means well fitted inhibition curve with a large enough effect; inconclusive means small, poorly fitted or top-dose-only effect; inactive means flat fitted curve, though single readings scatter. Where the call is inconclusive, the potency comes from a doubtful curve fit.

Biological target: Luciferin 4-monooxygenase (Photinus pyralis) (UniProt P08659)
Test: qHTS profiling assay for firefly luciferase inhibitor/activator using purifed enzyme and Km concentrations of substrates (counterscreen for miR-21 project); further: nearly all actives have a fitted effect of over 55% in size;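 on activity change, negative = inhibition: plate controls were vehicle for no effect and reference inhibitor for full effect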
Settings: purified FLuc, luminescence inhibition; series mostly up to 57.5 µM; activity change, negative = inhibition: at the top concentration
Description: MLPCN Grant: 1 R21 NS059478-01 (miR-21 grant) Assay Provider: NCGC NCGC Assay Overview: Firefly (Photinus pyralis) luciferase is one of the most commonly used transcriptional reporters for a number of reasons. It is considered one of the more dynamically responsive reporters -that is, responsive to changes in reporter transcription - as it requires no post-translational modifications and is enzymatically active directly after protein synthesis (Wood, 1998). Additionally, the half-life of the luciferase protein is short relative to other reporter-gene products (Wood, 1995). Whereas reporters with long half-lives potentially allow for increased signal due to accumulation of reporter-gene product, once accumulated in the cell, dynamic changes in reporter-gene expression may be difficult to detect(Fan and Wood, 2007; Almond et al., 2004). It has been shown that wild-type P. pyralis luciferase has a half-life of approximately […] hours in mammalian cells (Thompson et al., 1991). Firefly luciferase reporter-gene assays are also generally considered one of the most sensitive assay types (Wood, 1995; Wood, 1998). Although light produced in a bioluminescence reaction is of lower intensity than that produced during fluorescence emission, this is offset by little to no background light inherent to luminescent assays. Thus the luciferase reporter can be expressed at much lower levels than fluorescent proteins while still providing robust signal. # However, it was initially observed, in 1991, by Thompson et al., that compounds that resemble the substrates of firefly luciferase (FLuc) can act as competitive inhibitors of the enzyme, and that these compounds, upon interaction with luciferase in the cell, can actually stabilize the protein and increase its half-life. Accumulated intracellular FLuc protein can be measured as an increase in luminescence signal, upon addition of detection reagents (which contain high concentrations of FLuc substrates) commonly used in high-throughput screening. In cell-based reporter gene assays that use FLuc as the reporter gene to quantitate the potential influence of a given compound against the target biology, this apparent increase in luminescence can mistakenly be interpreted as identification of a compound that is active against the target of interest. This is the case for the miR-21 FLuc reporter gene assay used to identify inhibitors of the miR-21 pathway (PubChem AID 2289) - compounds of interest will inhibit miR-21 biogenesis/expression or activity, and are identified by causing an increase in luminescence, due to increased FLuc translation. However, FLuc inhibitory compounds that stabilize the FLuc protein will give an identical read-out, making it difficult to distinguish compounds that are active against the target from those active against FLuc. Previous profiling work to determine the prevalence of compounds that affect FLuc enzymatic activity (PubChem AID 411) identified that ~3% of the MLSMR library (then at ~72K) inhibited FLuc. […] Since the MLSMR had grown to ~350K compounds, and since it was expected that a significant percentage of compounds found active in the miR-21 FLuc assay would be FLuc inhibitors, the library was screened for activity against FLuc using a biochemical assay of purified FLuc and KM concentrations of FLuc substrates (D-luciferin and ATP).
NCGC Assay Protocol Summary: Reagents: 50mM Tris acetate, pH 7.5; 10mM Mg acetate; 10uM D-luciferin (Sigma #L9504); 10uM ATP; 0.01% Tween-20; 0.05% BSA; 10nM P. pyralis luciferase (Sigma #L9506) Control compounds used were two known firefly luciferase inhibitors (compounds (2) and (5) in Auld et al., 2010), and DMSO. […]
Tags describe the fitted curve by direction and shape.

UniProt P08659, sequence (P08659 whole entry, looked up): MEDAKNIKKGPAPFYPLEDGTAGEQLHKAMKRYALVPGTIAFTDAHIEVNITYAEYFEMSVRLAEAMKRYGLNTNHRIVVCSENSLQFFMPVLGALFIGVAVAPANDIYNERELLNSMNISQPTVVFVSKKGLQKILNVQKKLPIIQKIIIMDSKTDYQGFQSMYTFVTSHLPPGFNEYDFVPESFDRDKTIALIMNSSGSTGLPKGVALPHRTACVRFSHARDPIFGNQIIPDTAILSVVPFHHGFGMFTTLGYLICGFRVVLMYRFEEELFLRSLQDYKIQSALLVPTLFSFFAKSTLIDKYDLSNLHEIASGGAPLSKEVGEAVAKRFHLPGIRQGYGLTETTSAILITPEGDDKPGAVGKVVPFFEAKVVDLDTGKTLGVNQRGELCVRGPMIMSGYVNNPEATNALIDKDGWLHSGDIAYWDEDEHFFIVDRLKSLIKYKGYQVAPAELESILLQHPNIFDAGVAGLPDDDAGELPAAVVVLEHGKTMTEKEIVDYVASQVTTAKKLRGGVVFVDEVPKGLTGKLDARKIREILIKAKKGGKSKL

Structure (SMILES)	Potency	activity change, negative = inhibition
CCOc1cc(/C=C2\C(=O)NC(=O)N(C)C2=O)cc([N+](=O)[O-])c1O	inconclusive: 30.1 µM [inhibitor, partial curve, poor fit]	
O=C(Nc1ccc2c(c1)OCO2)c1cccn(Cc2ccc(F)cc2)c1=O	inconclusive: 33.8 µM [inhibitor, single point]	
N/C(=N\[N+](=O)[O-])N/N=C/c1ccc(O)cc1	inconclusive: 37.9 µM [inhibitor, partial curve, poor fit]	
N=C1c2ccccc2CN1NC(=O)c1ccccc1		inactive: -3.97%
C/C(=N\NC(=O)c1ccccc1O)c1c(O)n(Cc2ccccc2)c(=O)[nH]c1=O	active: 10.7 µM	
COc1ccc(C(=O)CC2C(=O)N(C)C(=O)N(C)C2=O)cc1		inactive: -1.78%
C=CCN1C(=O)/C(=C/c2ccc(Br)s2)C(=O)NC1=S	inconclusive: 23.9 µM [inhibitor, partial curve, poor fit]	
COc1cccc(Cn2c(=O)oc3ccccc32)c1	inconclusive: 33.8 µM [inhibitor, single point]	
CC1(C)OC(c2ccccc2)=C/C(=C/C=C2C(=O)NC(=O)NC2=O)O1	inconclusive: 21.3 µM [inhibitor, partial curve, poor fit]	
CC(C)N(Cc1nccn1C)C(=O)CCc1nnc(CCCc2ccccc2)o1	inconclusive: 21.3 µM [inhibitor, single point]	
Cc1cc(/C=C2/C(=O)NC(=O)N(Cc3ccco3)C2=O)c(C)n1-c1ccccc1O	inconclusive: 23.9 µM [inhibitor, partial curve]	
CN1C(=O)C(=Cc2ccccc2OCc2ccc(Cl)cc2)C(=O)N(C)C1=O	active: 9.53 µM	
COc1ccc(-n2c(=S)[nH]c3c(sc(=S)n3-c3ccccc3)c2=O)c(OC)c1	active: 10.7 µM	
C=C(C=O)C[C@@H]1C[C@H](O)C2OC3C[C@]4(C)OC5/C=C\CC6OC7C(CC=CCC6OC5CCCC4OC3CC2O1)OC1CC2OC3CC(=O)OC3C[C@@H](C)C[C@@]2(C)OC1C[C@@H]7C (stereo partly specified)		inactive: -1.64%
CC(c1nccs1)N(C)C(=O)c1cn(Cc2cccc3ccccc23)nn1 (stereo unspecified)	inconclusive: 19 µM [inhibitor, partial curve]	
O=c1cccc2n1CC1CC2CN(c2ncnc3c2cnn3-c2ccc(Cl)cc2)C1 (stereo unspecified)	inconclusive: 21.3 µM [inhibitor, partial curve, poor fit]	
O=Cc1cn(Cc2c(F)cccc2Cl)c2ccccc12	inconclusive: 26.9 µM [inhibitor, partial curve, poor fit]	
COc1ccc(-c2cc(=O)c3c(OC)c(OC)c(OC)cc3o2)cc1	inconclusive: 26.9 µM [inhibitor, partial curve]	
O=C(COc1ccccc1Cl)Nc1ccc2nc(SCC(=O)N3CCCC3)sc2c1	inconclusive: 13.5 µM [inhibitor, partial curve, poor fit]	
Cc1ccc(N=Cc2c(O)n(C)c(=O)n(C)c2=O)nc1	inconclusive: 30.1 µM [inhibitor, partial curve, poor fit]	
Cc1cccc(N2C(=O)NC(=O)/C(=C\C=C\c3ccco3)C2=O)c1	inconclusive: 26.9 µM [inhibitor, single point]	

Structure (SMILES)	Potency	activity change, negative = inhibition
COc1ccc(N=C(C)c2c(O)n(C)c(=O)n(C)c2=O)c(OC)c1	inconclusive: 30.1 µM [inhibitor, partial curve, poor fit]	
O=C(Oc1c(Cl)cc(Cl)c2ccccc12)N1CCCCC1	inconclusive: 16.9 µM [inhibitor, partial curve]	
N=C1/C(=C\c2ccc(OC(=O)c3ccccc3Cl)cc2)C(=O)N=C2SC(N3CCOCC3)=NN12	active: 23.9 µM	
Cc1cccc(OCC(=O)N2CCN(Cc3ccc([N+](=O)[O-])cc3)CC2)c1	inconclusive: 26.9 µM [inhibitor, partial curve, poor fit]	
CCc1ccc(NC(=O)c2cnc3sc(N4CCCC4)nn3c2=O)cc1	inconclusive: 4.26 µM [inhibitor, full curve]	
Cc1[nH]c(=S)c(C#N)c2c1CCCC2	inconclusive: 10.7 µM [inhibitor, partial curve]	
Cn1c(O)c(C=Nc2ccc3c(c2)CCC3)c(=O)n(C)c1=O	active: 3.38 µM	
CC[N+](C)(CC)CCC[n+]1c(-c2ccccc2)c2cc(N)ccc2c2ccc(N)cc21	inconclusive: 21.3 µM [inhibitor, single point]	
O=C(CN1CCCC1)Nc1ccc(NC(=O)Nc2ccccc2)cc1	active: 19 µM	
CN(C(=O)Oc1ccc(C(C)(C)C)cc1)c1ccccc1	active: 23.9 µM	
COc1ccc(N=Cc2c(O)n(C)c(=O)[nH]c2=O)cc1	inconclusive: 7.57 µM [inhibitor, full curve]	
O=c1c2ccccc2[se]n1-c1ccccc1	active: 6.01 µM	
O=C1NC(=S)N(c2ccc(F)cc2)C(=O)/C1=C\c1ccoc1	active: 23.9 µM	
O=C(N/N=C/c1c(O)n(CCc2ccc(F)cc2)c(=O)[nH]c1=O)c1ccncc1	inconclusive: 21.3 µM [inhibitor, partial curve, poor fit]	
O=C(c1ccco1)c1cn(Cc2ccc(Cl)cc2)c2ccccc12	inconclusive: 16.9 µM [inhibitor, partial curve]	
CCOC(=O)c1sc(=NC(=O)c2ccc(C)c(C)c2)n(C)c1C	inconclusive: 1.51 µM [inhibitor, partial curve, poor fit]	
Cc1ccc(N2C(=O)NC(=O)/C(=C\C=C\c3ccco3)C2=O)cc1	inconclusive: 23.9 µM [inhibitor, single point]	
O=C1OCc2cc(N=Nc3c(O)[nH]c(=O)[nH]c3=O)ccc21	inconclusive: 26.9 µM [inhibitor, single point]	
COCCCOc1ccnc(CS(=O)c2nc3ccccc3[nH]2)c1C (stereo unspecified)	inconclusive: 21.3 µM [inhibitor, partial curve, poor fit]	
CN1C(=O)C(=Cc2ccc(N(C)C)c([N+](=O)[O-])c2)C(=O)N(C)C1=O	inconclusive: 21.3 µM [inhibitor, partial curve]	
